Laboratory results taken from paper PMC4336329 (PLoS ONE, 2015).
The whole screen tested about 310,000 compounds, of which about 2,200 (0.71%) showed an effect of 50% or more. The effect is printed as a negative number. The list shows a part of the results.

biological target: human ether-à-go-go-related gene (hERG) potassium channel (human, UniProt Q12809); experiment: primary screen, population patch clamp on CHO cells stably expressing hERG
Sequence (Q12809 whole entry, looked up): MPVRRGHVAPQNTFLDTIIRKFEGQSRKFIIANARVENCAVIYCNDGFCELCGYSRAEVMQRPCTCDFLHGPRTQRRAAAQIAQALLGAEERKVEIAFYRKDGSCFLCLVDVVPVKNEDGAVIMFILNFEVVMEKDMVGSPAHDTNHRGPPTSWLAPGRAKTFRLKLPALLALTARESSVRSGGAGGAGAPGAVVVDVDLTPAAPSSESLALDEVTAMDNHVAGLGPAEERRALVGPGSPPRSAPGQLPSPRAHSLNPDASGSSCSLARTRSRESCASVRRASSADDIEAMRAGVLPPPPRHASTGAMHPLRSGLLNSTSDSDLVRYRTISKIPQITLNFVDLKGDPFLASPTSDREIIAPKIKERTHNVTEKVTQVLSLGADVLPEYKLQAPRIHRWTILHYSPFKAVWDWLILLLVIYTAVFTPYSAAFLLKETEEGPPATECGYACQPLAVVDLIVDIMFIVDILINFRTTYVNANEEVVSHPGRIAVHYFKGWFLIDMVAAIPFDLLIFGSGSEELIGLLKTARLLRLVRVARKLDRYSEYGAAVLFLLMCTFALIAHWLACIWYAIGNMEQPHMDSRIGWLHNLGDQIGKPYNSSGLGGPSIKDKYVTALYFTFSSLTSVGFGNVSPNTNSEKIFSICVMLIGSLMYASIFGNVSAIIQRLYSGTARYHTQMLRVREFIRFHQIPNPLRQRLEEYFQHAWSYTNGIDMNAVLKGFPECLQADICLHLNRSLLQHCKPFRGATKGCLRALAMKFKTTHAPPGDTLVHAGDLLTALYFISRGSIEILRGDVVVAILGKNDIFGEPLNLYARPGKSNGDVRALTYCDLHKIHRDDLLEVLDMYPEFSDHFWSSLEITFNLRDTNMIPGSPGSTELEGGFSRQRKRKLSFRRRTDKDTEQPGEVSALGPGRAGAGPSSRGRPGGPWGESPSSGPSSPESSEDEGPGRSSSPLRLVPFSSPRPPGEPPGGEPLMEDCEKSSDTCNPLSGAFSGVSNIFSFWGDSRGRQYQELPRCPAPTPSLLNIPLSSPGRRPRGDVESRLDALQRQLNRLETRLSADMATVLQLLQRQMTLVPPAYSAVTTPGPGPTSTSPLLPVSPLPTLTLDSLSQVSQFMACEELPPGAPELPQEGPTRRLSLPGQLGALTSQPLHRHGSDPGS

Compound	hERG current change (%, negative = inhibition) at 1uM [%]
CCCOc1ccc(N2C(=O)C3C4C=CC(CC4)C3C2=O)cc1 (stereo not drawn)	12.4
COc1ccc(/C(O)=C2/C(=O)C(=O)N(CCN(C)C)C2c2ccccn2)cc1OC (stereo not drawn)	15
N#Cc1c(N)c(C(=O)c2ccccc2)n2ccccc12	13.4
C[C@H](NC(=O)[C@@H]1Cc2ccccc2CN1C(=O)OC(C)(C)C)C(=O)NC1CCCCC1	13.1
Nn1c(SCC(=O)NNC(=O)c2ccccc2)nnc1-c1ccccc1F	13.2
Cc1cccnc1N(C(=O)Nc1ccccc1)C1=NCC(C)(C)S1	0.866
CC(C)OCCCNC(=O)c1cccs1	-3.78
Cc1ccc(N(C(=O)Cc2c[nH]c3ccccc23)C(C(=O)NC2CCCCC2)c2ccco2)cc1 (stereo not drawn)	-2.79
O=C1CC(c2ccc(F)cc2)c2cc3c(cc2N1)CCC3 (stereo not drawn)	-0.85
Cc1ccc(S(=O)(=O)NCC(=O)OCC(=O)Nc2cccc(S(=O)(=O)NC3=NCCCCC3)c2)cc1C	6.3
Cc1cc(/C(=N/O)C(C)(C)NO)ccc1Cl	13.1
CCOc1ccc(OCCC(=O)OCC(=O)Nc2cc(OCC)c(N3CCOCC3)cc2OCC)cc1	12.9
CC(C)(C)c1ccc(NC(=O)C2=CN3CCS(=O)(=O)N=C3C=C2)cc1	-1.02
Cn1c(SCC(=O)NC2CCCCC2)nnc1-c1ccccc1O	-20.1
COc1ccc(C(CNC(=O)c2ccc(NS(=O)(=O)c3ccc(F)c(C)c3)cc2)N2CCOCC2)cc1 (stereo not drawn)	-1.98
Cc1ccn(CC(=O)N2N=C(C(F)F)CC2(O)C(F)F)n1 (stereo not drawn)	18.1
COc1ccc(/C=N/NC(=O)c2ccoc2C)cc1CN1CCN(c2ccc(F)cc2)CC1	-19.3
Cc1cc(NC(=O)C2CCN(S(=O)(=O)c3c(C)noc3C)CC2)ccc1Br	19.5
O=C(Nc1ccc2nsnc2c1)c1cccs1	14.5
COc1ccc(-c2c(C)nn(Cc3ccccc3)c2N)cc1	-1.25
CCc1ccc(NC(=O)c2cnc(SC)nc2C)cc1	11.4
CC1=CC(C)(C)N2C(=O)C3(C(C#N)=C(N)Oc4cc(O)ccc43)c3c(C)c(C)cc1c32 (stereo not drawn)	-9.88
O=C(CC(O)(c1ccccc1)C(F)(F)C(F)F)c1cccs1 (stereo not drawn)	7.27
CCC(=Nc1ccc2c(c1)CCC2)c1c(O)n(C)c(=O)n(C)c1=O	3.33
